The results in this text go back to US20220242948A1 (CARTEXELL, published 2022).

Broadly, the EC50 is the midpoint of the concentration-response curve. High values mean weaker potency, low ones greater potency.

For assay [1], the target named is T1, human L1CAM (hL1CAM, R&D system, Cat No.777-NC) (human, UniProt P32004 20-1120).
T1 construct: Bought protein; also called antigen hL1CAM
In words: soluble ELISA, plate coated with hL1CAM, purified scFv titrated, HRP-anti-StrepMAB (curve of FIG. 7B; R2 0.992). As for the experimental part: (§1) Specifically, the antigen mL1CAM protein or antigen hL1CAM protein was added to 96-well plates, incubated at 4° C. overnight, and then blocked with 2% MPBS at room temperature for 1 hour. Then, the purified anti-L1CAM scFv antibody protein was added. After incubation at room temperature for 90 minutes, HRP-anti-StrepMAB (IBA, Cat No. 2-1509-001) was diluted in 2% MPBS to 1:5000 and added. After incubation at room temperature for 1 hour, TMB substrate (Sigma, Cat No. T0440) and 2N H₂SO₄ (Merck, Cat No. 100731) were sequentially added, and the absorbance (OD) at 450 nm was measured. […] When the binding affinity of four types of cross-reactive clones was synthetically compared for each L1CAM, the binding affinity was high in the order of H8>E1>C9>E9.
In general terms: In an ELISA, binding on a coated surface is turned into a signal by an enzyme label.

For assay [2], the target named is T1, human L1CAM (hL1CAM, R&D system, Cat …). Briefly: soluble ELISA, plate coated with hL1CAM, purified scFv titrated, HRP-anti-StrepMAB (curve of FIG. 7B, which shows no plateau; R2 1.000). The protocol:
as §1

T1 sequence (P32004 20-1120 limits assumed): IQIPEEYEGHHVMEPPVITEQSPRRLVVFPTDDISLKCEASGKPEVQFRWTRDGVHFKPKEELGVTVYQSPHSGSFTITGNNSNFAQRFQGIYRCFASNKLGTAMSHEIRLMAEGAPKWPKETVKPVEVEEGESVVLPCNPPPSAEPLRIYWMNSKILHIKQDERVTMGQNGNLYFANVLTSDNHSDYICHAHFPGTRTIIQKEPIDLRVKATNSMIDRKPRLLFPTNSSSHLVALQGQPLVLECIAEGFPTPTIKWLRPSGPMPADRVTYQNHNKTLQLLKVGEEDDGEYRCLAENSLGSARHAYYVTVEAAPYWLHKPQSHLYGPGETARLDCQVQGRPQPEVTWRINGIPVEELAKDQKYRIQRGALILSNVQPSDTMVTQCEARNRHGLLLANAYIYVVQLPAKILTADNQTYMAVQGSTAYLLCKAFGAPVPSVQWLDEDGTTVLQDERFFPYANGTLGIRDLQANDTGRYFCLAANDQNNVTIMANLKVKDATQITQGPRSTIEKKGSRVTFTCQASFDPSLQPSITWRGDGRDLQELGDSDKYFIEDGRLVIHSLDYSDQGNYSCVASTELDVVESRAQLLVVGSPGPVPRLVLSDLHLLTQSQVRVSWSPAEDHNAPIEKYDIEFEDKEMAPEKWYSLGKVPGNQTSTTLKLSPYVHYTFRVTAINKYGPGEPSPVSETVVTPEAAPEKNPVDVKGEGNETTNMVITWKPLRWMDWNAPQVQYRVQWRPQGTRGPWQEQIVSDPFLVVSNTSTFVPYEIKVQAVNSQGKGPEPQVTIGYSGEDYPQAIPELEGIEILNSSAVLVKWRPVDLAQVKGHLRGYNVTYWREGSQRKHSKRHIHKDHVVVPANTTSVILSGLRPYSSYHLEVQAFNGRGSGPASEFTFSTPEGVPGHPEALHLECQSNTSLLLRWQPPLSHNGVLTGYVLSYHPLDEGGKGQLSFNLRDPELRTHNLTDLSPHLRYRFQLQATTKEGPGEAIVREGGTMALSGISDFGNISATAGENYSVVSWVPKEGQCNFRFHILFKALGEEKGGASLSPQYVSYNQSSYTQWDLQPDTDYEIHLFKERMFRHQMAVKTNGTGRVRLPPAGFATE

B1: mL1CAM-3R-E1 purified soluble anti-L1CAM scFv antibody protein (scFv)
scFv: [skipping about 100 residues]DESTGLGAFDYWGQGTLVTVSSGGGGSGGGGSGGGGSDIQMTQSPSSLSASVGDRVTITCRASQSISNYLNWYQQKPGKAPKLLIYAASNLQSGVPSRFSGSGSGTDFTLTISSLQPEDFATYYCQQSYSFPWTFGQGTKVEIK
notes: Expressed in E. coli (pKFAB), purified on a strep tag II column; not shown: strep tag II from the pKFAB vector
B1 registered an EC50 in assay [1] of 0.228 µM.

B2: mL1CAM-3R-C9 purified soluble anti-L1CAM scFv antibody protein (scFv)
scFv: [skipping about 100 residues]DEGSGLGAFDIWGQGTLVTVSSGGGGSGGGGSGGGGSDIQMTQSPSSLSASVGDRVTITCRASQSISRYLNWYQQKPGKAPKLLIYAASNLQSGVPSRFSGSGSGTDFTLTISSLQPEDFATYYCQQSYSFPWTFGQGTKVEIK
notes: as for B1
Take B2: the EC50 in assay [2] is 6.06 µM.
